Experiment [1] concerns the target Flag-YAP1-2γ (human) (UniProt P46937). As to the kind of experiment: co-IP; HEK293T co-transfected with Flag-YAP1 and the partner; RIPA lysate, 500 μg, antibody beads overnight; IP for Flag (YAP1), immunoblot for the partner; β-TRCP panel in the absence of MG132. For orientation: A western blot detects proteins with antibodies after separation by electrophoresis.
The target in experiment [2] is Flag-YAP1-1γ (human) (UniProt P46937). The experiment is described as above.
The target in experiment [3] is Flag-YAP1-2γ (human) (UniProt P46937). Described as above. This is another data set of the same source.
Experiment [4] has as its target Flag-YAP1-1γ (human) (UniProt P46937). The description is as above. This is another data set of the same source.
Experiment [5] has as its target Flag-YAP1-1δ (L3.6-YAP1-1δ cells) (human) (UniProt P46937). As to the kind of experiment: co-IP; L3.6-YAP1-1δ and L3.6-YAP1-2δ stable cells, LCD for 3 days, then HCD for 24 h; IP for Flag (YAP1), immunoblot for endogenous partners.

By UniProt entry, the sequences of proteins in these tests, tags left out.
UniProt Q9Y297: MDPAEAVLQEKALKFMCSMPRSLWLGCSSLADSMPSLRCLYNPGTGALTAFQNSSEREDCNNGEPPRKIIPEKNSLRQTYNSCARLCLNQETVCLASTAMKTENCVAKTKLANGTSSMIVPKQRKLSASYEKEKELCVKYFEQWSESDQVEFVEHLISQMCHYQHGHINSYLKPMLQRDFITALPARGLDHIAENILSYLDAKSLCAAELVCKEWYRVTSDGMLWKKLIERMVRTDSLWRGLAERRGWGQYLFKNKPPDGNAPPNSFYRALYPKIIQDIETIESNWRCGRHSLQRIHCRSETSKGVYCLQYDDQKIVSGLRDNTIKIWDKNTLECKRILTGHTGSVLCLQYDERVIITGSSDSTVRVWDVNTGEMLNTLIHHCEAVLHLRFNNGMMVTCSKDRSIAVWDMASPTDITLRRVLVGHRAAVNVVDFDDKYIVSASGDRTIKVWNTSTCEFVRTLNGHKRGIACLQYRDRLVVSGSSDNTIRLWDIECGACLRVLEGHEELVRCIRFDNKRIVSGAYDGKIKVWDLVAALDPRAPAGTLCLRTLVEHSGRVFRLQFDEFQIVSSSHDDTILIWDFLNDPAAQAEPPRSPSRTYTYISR

Read-outs that look alike come from different tables or passages of the source. No constants are given. Whether binding was seen depends on the method and setting. In cells and extracts the contact can be indirect. Some entries that bind do so weakly or less than the wild type.

Take “HA-tagged β-TRCP (from UniProt Q9Y297 1-605)”: the binding result in experiment [1] and in experiment [2] was “binds” throughout.

B1: PTPN14 (transfected) (enzyme, UniProt Q15678 1-1187)
chain: MPFGLKLRRTRRYNVLSKNCFVTRIRLLDSNVIECTLSVESTGQECLEAVAQRLELRETHYFGLWFLSKSQQARWVELEKPLKKHLDKFANEPLLFFGVMFYVPNVSWLQQEATRYQYYLQVKKDVLEGRLRCTLDQVIRLAGLAVQADFGDYNQFDSQDFLREYVLFPMDLALEEAVLEELTQKVAQEHKAHSGILPAEAELMYINEVERLDGFGQEIFPVKDNHGNCVHLGIFFMGIFVRNRIGRQAVIYRWNDMGNITHNKSTILVELINKEETALFHTDDIENAKYISRLFATRHKFYKQNKICTEQSNSPPPIRRQPTWSRSSLPRQQPYILPPVHVQCGEHYSETHTSQDSIFHGNEEALYCNSHNSLDLNYLNGTVTNGSVCSVHSVNSLNCSQSFIQASPVSSNLSIPGSDIMRADYIPSHRHSAIIVPSYRPTPDYETVMRQMKRGILHTDSQSQSLRNLNIINTHAYNQPEDLVYSQPEMRERHPYTVPYGPQGVYSNKLVSPSDQRNPKNNVVPSKPGASAISHTVSTPELANMQLQGSHNYSTAHMLKNYLFRPPPPYPRPRPATSTPDLASHRHKYVSGSSPDLVTRKVQLSVKTFQEDSSPVVHQSLQEVSEPLTATKHHGTVNKRHSLEVMNSMVRGMEAMTLKSLHLPMARRNTLREQGPPEEGSGSHEVPQLPQYHHKKTFSDATMLIHSSESEEEEEEAPESVPQIPMLREKMEYSAQLQAALARIPNKPPPEYPGPRKSVSNGALRQDQASLPPAMARARVLRHGPAKAISMSRTDPPAVNGASLGPSISEPDLTSVKERVKKEPVKERPVSEMFSLEDSIIEREMMIRNLEKQKMAGLEAQKRPLMLAALNGLSVARVSGREENRVDATRVPMDERFRTLKKKLEEGMVFTEYEQIPKKKANGIFSTAALPENAERSRIREVVPYEENRVELIPTKENNTGYINASHIKVVVGGAEWHYIATQGPLPHTCHDFWQMVWEQGVNVIAMVTAEEEGGRTKSHRYWPKLGSKHSSATYGKFKVTTKFRTDSVCYATTGLKVKHLLSGQERTVWHLQYTDWPDHGCPEDVQGFLSYLEEIQSVRRHTNSMLEGTKNRHPPIVVHCSAGVGRTGVLILSELMIYCLEHNEKVEVPMMLRLLREQRMFMIQTIAQYKFVYQVLIQFLQNSRLI
For B1, the values for the binding result in experiment [3] and in experiment [4] were “binds” and “no binding”, respectively.

B2: PTPN14 (endogenous, L3.6 cells) (enzyme, UniProt Q15678 1-1187)
chain: B1 chain
Turning to B2, in experiment [5], the binding entry is “no binding”.

These data come from PMC7150473.
